In all, about 110,000 compounds were measured (“z-score”: median about -0.1, highest 2% from about 2 on). This is one part of the list.

In the experiment the target is Metabotropic glutamate receptor 8 (Rattus norvegicus) (UniProt P70579). As to the kind of experiment: mGluR8 Gi/Go-coupled signaling modulation – cell-based, rat, thallium flux, HTS, primary screen (AID 488969). The following applies: HEK293 rat mGluR8, GIRK (G protein-gated inwardly rectifying potassium channel) thallium flux, FluoZin2; at 10 µM; stronger effect = higher value; submaximal glutamate (EC20) added with thallium.
Chain of UniProt P70579 (P70579 whole entry, looked up): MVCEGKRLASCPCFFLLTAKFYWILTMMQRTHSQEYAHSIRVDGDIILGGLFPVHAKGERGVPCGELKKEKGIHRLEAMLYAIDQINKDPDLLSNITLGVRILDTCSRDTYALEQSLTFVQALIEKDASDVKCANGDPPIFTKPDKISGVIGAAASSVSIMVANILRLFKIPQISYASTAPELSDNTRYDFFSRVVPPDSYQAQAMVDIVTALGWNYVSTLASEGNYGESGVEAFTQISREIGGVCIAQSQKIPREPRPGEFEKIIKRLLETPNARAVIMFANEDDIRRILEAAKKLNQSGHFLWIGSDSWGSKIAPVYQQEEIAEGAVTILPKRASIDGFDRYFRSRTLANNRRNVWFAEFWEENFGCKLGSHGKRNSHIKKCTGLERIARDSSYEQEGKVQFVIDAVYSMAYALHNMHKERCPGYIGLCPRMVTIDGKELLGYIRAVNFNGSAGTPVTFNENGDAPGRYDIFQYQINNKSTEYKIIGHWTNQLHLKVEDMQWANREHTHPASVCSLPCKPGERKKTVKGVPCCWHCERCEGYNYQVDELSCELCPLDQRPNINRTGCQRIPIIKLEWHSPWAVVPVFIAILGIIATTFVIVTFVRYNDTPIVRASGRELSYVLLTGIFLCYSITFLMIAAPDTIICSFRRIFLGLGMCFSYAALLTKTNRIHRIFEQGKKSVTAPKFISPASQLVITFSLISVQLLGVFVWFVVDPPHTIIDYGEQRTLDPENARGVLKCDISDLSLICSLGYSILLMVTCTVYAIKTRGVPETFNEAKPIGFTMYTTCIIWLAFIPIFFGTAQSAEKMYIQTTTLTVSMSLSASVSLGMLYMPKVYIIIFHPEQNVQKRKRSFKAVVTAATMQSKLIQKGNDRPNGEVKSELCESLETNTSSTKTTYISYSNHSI
Turning to `Cc1ccc(C(=O)CSc2nnc3c4ccccc4nc(Cc4ccccc4)n23)cc1`, the z-score was -0.447. Then `COc1ccc(C(NC(=O)c2cccnc2)c2cc(Cl)c3cccnc3c2O)cc1OC` (centres undefined), with 0.0276; and `O=C1CC(c2cccc(Cl)c2)C(n2cncn2)C(=O)C1C1NCCc2ccccc21` (centres undefined), with 0.0747; and `CCC1CCCCN1c1nc(-c2ccncc2)nc2ccccc12` (centres undefined), with -0.323. For the compound `CC(C)c1ccc(/C=C2\CC/C(=C\C=N\N(C)C)C2=O)cc1`, the z-score was -0.6. `O=C(CSCc1ccc(F)cc1)Nc1ccccc1`: the z-score came to 0.0848. Consider `O=C(CCS(=O)(=O)c1ccc(Br)cc1)N1CCN(c2ccc(Cl)cc2)CC1`, for which the z-score was -0.00875. Take `O=C(NCc1ccc(OC(F)(F)F)cc1)C12CN(Cc3ccccc3)CC1C(c1cccc([N+](=O)[O-])c1)=NO2` (centres undefined): the z-score was -0.0978. Next, `Cc1ccc(-c2csc(NC(=O)CCCc3cccs3)n2)cc1`: -0.208. Next, `COc1ccc(CCn2nnnc2C(c2ccccc2)N2CCN(C)CC2)cc1OC` (centres undefined): 0.996; `CCOC(=O)Oc1ccc2c(=O)c(Oc3cccc(C)c3)coc2c1`: -0.318; `Cc1ccc2[nH]c3c(=O)n(CCc4cnc[nH]4)cnc3c2c1`: -0.0642. Then `O=c1c(Cc2ccc(Cl)cc2)c(O)ccn1Cc1cccc(Cl)c1`, with -0.22; and `Cn1c(=O)c2cc(S(=O)(=O)NC(C(=O)N3CCCCCC3)c3ccccc3)ccc2n(C)c1=O` (centres undefined), with -0.0184. As to `O=C(NCCN1CCCCCC1)c1ccc(N2CCCC2=O)cc1`, the z-score amounted to 0.102. Then `Clc1ccc(CNC2CCCC2)c(Cl)c1`, with 0.236; and `Cc1ccc(S(=O)(=O)c2nc(S(=O)(=O)c3ccc(C)cc3)c(NCc3ccco3)s2)cc1`, with -0.358. Regarding `CCOC(=O)Cc1ccc(NC(=O)c2ccc(C(C)(C)C)cc2)cc1`, the z-score turned out to be 0.848. Then `Cc1cccc(N(CC(=O)Nc2ccc(-c3nc4ccc(C)cc4s3)cc2)S(C)(=O)=O)c1`, with 0.0587; and `O=C(CC1C(=O)N(c2ccccc2)C(=O)N1C1CCCCC1)Nc1ccccc1` (centres undefined), with -0.204. Next, `O=C(CSc1nc2cccnc2n1Cc1ccccc1)N1CCc2ccccc21`: -0.1; `Cc1sc2ncn(CCn3cnc4sc(C)c(C)c4c3=O)c(=O)c2c1C`: 0.424; `O=S(=O)(c1ccccc1)N1CCN(S(=O)(=O)N2CCCCC2)CC1`: -0.0844. `COc1ccc(C(=O)C[n+]2ccc3c(c2)nc(-c2ccc(OC)cc2OC)n3C)cc1`: the z-score was -0.248. Next, `CCN(CC)S(=O)(=O)c1ccc(F)cc1`: -0.195. Then `COC(=O)c1cc(NC(=O)c2c(Cl)nc3sccn23)cc(C(=O)OC)c1`, with -0.189.

For `CSc1c(CC(=O)NCCO)n(C)c2ccccc12`, the z-score turned out to be 0.0473. Then `COCCOc1ccc(C(F)(F)F)cc1NC(=O)c1ccccc1`, with 0.179; and `O=C(COc1ccccc1)Nc1ccc(S(=O)(=O)N2CCCC2)cc1`, with -0.354.

The values are drawn from PubChem BioAssay AID488969 (Vanderbilt High Throughput Screening Facility, 2010).
